# Results as given in the supplement of paper PMC11417369.
# ± gives the standard deviation of the averaged measurements. The list shows a part of the results.
# Tested on: PfAP2-LT AP2 domain (GST-tagged)
# Test: gcPBM binding intensity (ln(normalized median fluorescence intensity)); higher = stronger DNA binding
# In short: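 Plasmodium falciparum DNA-binding domains carrying a GST tag were expressed in E. coli and applied for 1 h, at about 25 μg on average, to an Agilent 4 × 180k array. The array held primer-extended double-stranded 36-bp intergenic genomic probes together with negative controls, and binding took place in 1× PBS with 1% milk, 0.2 mg/ml BSA, 0.5% salmon testes DNA and 0.03% Triton X-100. An Alexa488 anti-GST antibody detected bound protein, and the array was scanned at 488 nm. Binding intensity is taken as the highest Masliner-normalised natural-log median intensity across replicate spots of either probe orientation.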
row,Sequence,gcPBM binding intensity (ln)
1,ATATATTTACATATTACACACAATATTGTACACATA [CACACA_site6564],9.29 ± 0.34
2,TTTCTTTTTAAATAGGTGCATATTTTTATAAATATA,8.4 ± 0.43
3,TTAAATATAATATTATGTACTAAATATTTTTTTATT [XGTACX_site6121],8.43 ± 0.63
4,CTATTTCAGAAACACACACACACAAACAAACATATA [CACACA_site978],9.925 ± 0.092
5,TATTTGAAAGCCAATTGTACTTTAGTTTTTGAAACA [XGTACX_site5542],8.29 ± 0.44
6,CAAGAAATTTACAAACGTACATATGTTCATACAAGG [XGTACX_site2372],8.89 ± 0.49
7,TTAGAGAAACAAAATTGTACATTATAAATTTGCCTT [XGTACX_site440],8.54 ± 0.43
8,TATATATATATATATATATATATGTATGTGCATTTA [TGCATGCA_negctrl_site53],9.72 ± 0.11
9,ATTTAGAAAAATAAAACACACATATATATGTAAATA [CACACA_site4113],8.96 ± 0.35
10,ATATAAAAATGTAAGGGTACATAATAAATAATCAAA [XGTACX_site5217],9.02 ± 0.49
11,ATCTGTCGACAGGACAGTACACAGTAGCCAGGAAAT [XGTACX_site1994],9.16 ± 0.42
12,TATATCTTACTTTTTGCACACACTAATATTATTGTT [CACACA_site1640],9.52 ± 0.3
13,ACAAAATTTACAAAATGTACAAAATTTACAAAATGT [XGTACX_site6464],8.81 ± 0.35
14,GAAGGAAAAACAGAATGTACATAAATAAACGTATAT [XGTACX_site753],9.32 ± 0.66
15,AATACGGCAAACATTAAAAAATATAATAACAATAAA [CACACA_negctrl_site868],8.8 ± 0.54
16,GGAAAAAATATATGCACACCCCCCAAAAAAAAAAAA [CACACA_site2222],10.5 ± 0.13
17,AAAAAATATTAATATAGTACTTTATATTTATAAGTA [XGTACX_site6895],8.35 ± 0.6
18,TTTTTGTTATTTTTAGTGCACATTTAAGGGTGTATT,8.86 ± 0.43
19,AATATACAAAATATCACACATATAAAATAATATATA [CACACA_site6067],8.88 ± 0.45

row,Sequence,gcPBM binding intensity (ln)
1,GATATATAAACATATACACACAAAAACATATTTATA [CACACA_site6734],9.03 ± 0.42
2,TGATAATTTCATTTTGCATGTGACAATACAAGATGT [TGCATGCA_site203],8.67 ± 0.42
3,AAATAATATGTAATCAAATTCACCAAACGAAAAAAA [TGCATGCA_negctrl_site33],8.84 ± 0.5
4,AATGGTTCAACGTAGTGTACGTAATAAATAATAAAT [XGTACX_site8668],8.86 ± 0.45
5,ATTATATGTAACACGTGTACCTATTTATGTATGCTT [XGTACX_site5748],9.11 ± 0.37
6,TATAATATTTACGACAGTACATATATATATATGTAT [XGTACX_site8332],8.86 ± 0.36
7,AAATAATTTGTTGACACACACACACCCATACATATA [CACACA_site2285],9.86 ± 0.21
8,TACATATAAAAGTACACACACACACCCATATATATA [CACACA_site941],10.1 ± 0.3
9,ATGGACTTTTATAGTTGTACATACTATGAGAACTTT [XGTACX_site2800],8.75 ± 0.31
10,TAAAATAAATTGTGCACACATATTTATAAATATGAA [CACACA_site2331],9.03 ± 0.52
11,TATTGCCCGAAACACACACACATATATATATATATA [CACACA_site2491],10.01 ± 0.05
12,GTTTATCACAGCCACGCACACATAATATATGTATAT [CACACA_site3669],9.29 ± 0.35
13,ACAAAAAAATAAGGTGCACACAAAAAAAAAAAAAAA [CACACA_site8171],9.13 ± 0.54
14,TATATGGCATATTTCACACACACATAATGAATATTA [CACACA_site9181],9.39 ± 0.35
15,TTTTTTTTTTTTTGATGTACTTATTTAATAAGATAT [XGTACX_site376],8.38 ± 0.47
16,GAGTTCAGTTTTTGTTGTACTTATTCTTAATATGTC [XGTACX_site6083],8.97 ± 0.45
17,ATATAGCATATAATTTGTACACAGGCCATACCTGAA [XGTACX_site533],8.79 ± 0.35
18,AGATGATATACGTAAACACACAAATAAAAAAAATTT [CACACA_site3327],9.04 ± 0.47
19,TTTGTTTTATCTTATATGCACACGATAAAAAAAAAA [CACACA_site2673],8.47 ± 0.3

row,Sequence,gcPBM binding intensity (ln)
1,ATCCAAAAAATTAATGCATGCGCAAAAAATAGCTTA [TGCATGCA_site615],8.69 ± 0.4
2,AAAAAAAAAACATACACACACATATATATATATATG [CACACA_site1586],9.46 ± 0.3
3,TGTCCTTATTTGCACACACACATATAAGAAATTTAA [CACACA_site7485],9.41 ± 0.2
4,AAAAAAGACCATGTTAGTACATAAGATTTTTTTCAT [XGTACX_site4298],8.66 ± 0.48
5,TTTGACATACCTCTTGCATGTGAAAAACTTTTCGCT [TGCATGCA_site364],8.74 ± 0.58
6,ATATATAATATTTATTGTACTATTTTATTTTTATAA [XGTACX_site705],8.55 ± 0.45
7,ACTCTTTTAACGCAAAGTACTTTTTAAAATATTTCG [XGTACX_site7534],8.78 ± 0.49
8,AACATACGAATATTCACACATAAATATATAAATCGC [CACACA_site4672],9.13 ± 0.31
9,ATTTCTATTTGGGTTAGTACATATAAGTCTATTTTC [XGTACX_site3234],8.86 ± 0.43
10,TTTTTTTTTTCTTTTTGTACATATTCATAACAAGTA [XGTACX_site2784],8.39 ± 0.58
11,TATATAATCGAGTGCACACACAAAAAAAAAGTGAAC [CACACA_site1483],9.59 ± 0.42
12,TATTATATATATATCACACATATATTCATGTACATA [CACACA_site5432],8.89 ± 0.33
13,AATACGTTATTATTTTGTACATATAAATAATAAGTT [XGTACX_site815],8.63 ± 0.37
14,ATATATATATATATATGTACACATATTATAAAAAAA [XGTACX_site8644],9.05 ± 0.24
15,ATATATATTATATAGTGTACCTATGTATAATAATAT [XGTACX_site1683],8.76 ± 0.4
16,TATATATATAAATACACACACACCGTCCGTGTTAAA [CACACA_site5623],9.27 ± 0.2
17,TAACTCTATTTTTTTGCATGCTGAAGCTATGAGTTT [TGCATGCA_site821],8.81 ± 0.45
18,TATGTAGGTAAAAATTGTACTTTTTTTTTAATATTT [XGTACX_site2303],8.4 ± 0.41
19,TGAATAAATATAAAAGGTACACATATAAATATATAT [XGTACX_site6349],8.91 ± 0.4
